# Reference: PubChem BioAssay AID504832 (National Center for Advancing Translational Sciences (NCATS), 2011)
# The whole screen tested about 310,000 compounds, of which about 18,000 (5.8%) were called active. This list was built around the results that the source calls inconclusive (neither active nor inactive); the mix of calls is not that of the screen. Calls come from the whole dose curve; as a rule, active = well fitted inhibition curve with a large enough effect; inconclusive = small, poorly fitted or top-dose-only effect, or another doubt; inactive = no such curve, though single readings can be large or run the other way. Potencies of inconclusive entries are left out as doubtful fits.
# Assay: Primary qHTS for delayed death inhibitors of the malarial parasite plastid, 48 hour incubation
# Settings: P. falciparum luciferase growth in erythrocytes; series mostly up to 28.7 µM
# In short: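 Erythrocytes infected with P. falciparum carrying an integrated firefly luciferase reporter (2% hematocrit, 0.1% parasitemia final) were exposed to compounds in RPMI 1640 with 0.5% Albumax at 37 C, 5% CO2. Growth inhibition was scored as reduced luminescence.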
# Potency is the fitted concentration of half-maximal effect; tags give direction and shape of the fitted curve.
row,SMILES,Potency
1,COCCNC(=O)C(c1ccc(C)o1)N(Cc1cccs1)C(=O)c1snc(C(N)=O)c1N (configuration not stated),inactive
2,COC(=O)c1ccc(N=NN2CCCCC2)cc1,inactive
3,O=C(/C=C/c1ccccc1)Nc1cc(S(=O)(=O)N2CCOCC2)ccc1N1CCOCC1,"inconclusive [inhibitor, single point]"
4,CCOc1ccc2c(c1)sc(=NC(=O)C1CC1)n2C,"inconclusive [inhibitor, full curve, poor fit]"
5,Cc1nonc1NC(=O)CSc1nc(CCC2CCCC2)nc2ccccc12,"inconclusive [inhibitor, single point]"
6,CC(C)(CNC(=S)NCCc1ccccc1)CNC(=S)NCCc1ccccc1,active: 13.1 µM
7,COc1ccc(OC)c(S(=O)(=O)n2ccnc2C)c1,inactive
8,OC1CCN(Cc2cn(Cc3ccccc3)nc2-c2cc3ccccc3o2)CC1,active: 13.1 µM
9,CC(C)N(C(=O)CSc1nc2ccccc2n1Cc1ccccc1)C(C)C,"inconclusive [inhibitor, full curve, poor fit]"
10,CCOc1ccc(OCC(=O)N2CCOCC2)cc1,inactive
11,CC1CCN(c2ccc(NC(=O)c3cccnc3Cl)cc2)CC1,inactive
12,Cn1c(N)c(C(=O)COC(=O)c2cc(C3CC3)nc3ccccc23)c(=O)n(C)c1=O,"inconclusive [inhibitor, single point]"
13,O=C(CCc1nc2ccccc2c(=O)[nH]1)N1CCN(S(=O)(=O)c2ccc(Cl)c(C(F)(F)F)c2)CC1,"inconclusive [inhibitor, single point]"
14,COCC(C)OC(=O)c1c(N)n(CC(C)C)c2nc3ccccc3nc12 (configuration not stated),active: 11.7 µM
15,Cc1ccc(-c2nnc(N3CCCCC3)c3ccccc23)cc1S(=O)(=O)N1CCN(C)CC1,"inconclusive [inhibitor, partial curve]"
16,C=CCN(C(=O)CNC(=O)c1ccco1)C(C(=O)NC1CCCCC1)c1ccccc1F (configuration not stated),"inconclusive [inhibitor, partial curve, poor fit]"
17,Cc1ccc(O)c(CNc2nc3ccccc3n2C(C)C)c1,active: 8.28 µM
18,CC1CCCN(CCOCCOc2ccc(Cl)cc2Br)C1 (configuration not stated),active: 11.7 µM
19,CCN(CC(=O)NC(C)(C)C)C(=O)COc1c(Cl)cc(Cl)c2ccc(C)nc12,"inconclusive [inhibitor, partial curve, poor fit]"
20,COc1ccc(C(CNC(=O)CN2C(=O)NC3(CC(C)CC(C)(C)C3)C2=O)N2CCOCC2)cc1 (configuration not stated),"inconclusive [inhibitor, partial curve]"
21,Cc1nn(C)c(C)c1CNC(=O)c1cc2n(n1)C(C(F)(F)F)CC(c1cccs1)N2 (configuration not stated),inactive
22,COc1ccc(N2C(=O)C3C(C2=O)C(C(=O)c2ccc(Cl)cc2)N2CCCC32)cc1 (configuration not stated),"inconclusive [inhibitor, single point]"
23,N#C/C(=C\c1cn(CCOc2ccccc2)c2ccccc12)C(=O)NCc1ccco1,"inconclusive [inhibitor, single point]"
24,Cc1ccc(CNc2oc(COc3ccccc3Cl)nc2C#N)cc1,inactive

row,SMILES,Potency
1,Cc1ccc(Nc2nnc(SCC(=O)NCc3ccco3)s2)cc1,active: 5.86 µM
2,CC(=O)Nc1sc(C)c(C)c1C(=O)OCC(=O)Nc1cc(S(C)(=O)=O)ccc1Cl,"inconclusive [inhibitor, partial curve, poor fit]"
3,CCC(=O)N1CCN(c2ccccc2NC(=O)c2ccc(-c3cccc([N+](=O)[O-])c3)o2)CC1,active: 8.28 µM
4,COc1ccc2cc(C(=O)/C=C/c3cc(OC)c(O)c(OC)c3)ccc2c1,"inconclusive [inhibitor, single point]"
5,Cc1cc(Cl)ccc1OCC(=O)N1C(C)CCCC1C (configuration not stated),inactive
6,Cn1c(CNC(=O)c2ccco2)nnc1SCC(=O)c1ccc(Br)cc1,inactive
7,COc1ccc(S(=O)(=O)NCc2cccnc2)cc1NC(=O)c1ccc(Cl)cc1,"inconclusive [inhibitor, single point]"
8,Cc1noc(C(=O)Nc2ccc(Cl)cc2)c1Cl,inactive
9,Nc1cccc(-c2nc3cc(S(=O)(=O)c4ccc5oc(-c6cccc(N)c6)nc5c4)ccc3o2)c1,"inconclusive [inhibitor, full curve, poor fit]"
10,COc1ccc(-n2c(=O)/c(=C\c3cccs3)s/c2=C(/C#N)C(=O)N2CCN(C)CC2)cc1,"inconclusive [inhibitor, single point]"
11,O=C(c1ccccc1Cl)N(Cc1ccc(Br)cc1)N1C(=O)CCC1=O,inactive
12,Cc1ccc(-c2cc(C(F)F)nc(N3CCC(C)CC3)n2)cc1,"inconclusive [inhibitor, single point]"
13,Fc1ccc(CO/N=C/C2=C(Cl)c3ccccc3CC2)cc1,inactive
14,O=C(NCCCn1ccnc1)Nc1cccc2ccccc12,"inconclusive [inhibitor, single point]"
15,CCCCn1c(N)c(N(CCOC)C(=O)CCCc2nc3ccccc3s2)c(=O)[nH]c1=O,inactive
16,COc1ccc(/C=C/c2nc3ccccc3n2C)cc1,inactive
17,CC1CCCN(Cc2csc(N)n2)C1 (configuration not stated),inactive
18,COc1ccc(OC)c(Nc2ccc(Nc3cc(OC)ccc3OC)nn2)c1,"inconclusive [inhibitor, single point]"
19,Cc1ccc(CN2CC(C(=O)Nc3cccc(C)n3)CC2=O)cc1 (configuration not stated),"inconclusive [inhibitor, single point]"
20,CCc1ccc(C(=O)CCC(=O)Nc2ccc(OC)c(S(=O)(=O)N3CCCCC3)c2)cc1,inactive
21,CN(Cc1cccc(F)c1)C(=O)c1ccccc1Sc1ccccc1C#N,"inconclusive [inhibitor, single point]"
22,Cc1ccc(/C=N/NC(=O)CSc2nc3ccccc3c(=O)n2-c2ccccc2)s1,"inconclusive [inhibitor, single point]"
23,COCCNC(=O)C1CCN(S(=O)(=O)c2c(C)noc2/C=C/c2cccs2)CC1,"inconclusive [inhibitor, single point]"
24,Cc1ccc(C(=O)N/C(=C/c2ccccc2)C(=O)NCC2CCCO2)cc1 (configuration not stated),inactive

row,SMILES,Potency
1,CCOC(=O)CCc1c(C)nc(SCCN2CCCC2)c(C#N)c1C,"inconclusive [inhibitor, single point]"
2,COc1ccccc1N1CCN(Cc2nc(N)nc(Nc3ccccc3)n2)CC1,"inconclusive [inhibitor, single point]"
3,CCN1CCN(C(=O)C(=O)c2cn(CC(=O)N3CCCCCC3)c3ccccc23)CC1,"inconclusive [inhibitor, single point]"
4,O=C(c1cc(-c2ccc(Cl)s2)nc2ccccc12)N1CCOCC1,"inconclusive [inhibitor, single point]"
5,Cc1ccc(CNC(=O)C2c3ccccc3C(=O)N(C)C2c2c[nH]c3ccccc23)o1 (configuration not stated),"inconclusive [inhibitor, single point]"
6,CCCNS(=O)(=O)c1ccc(CCC(=O)N2CCCCC2)cc1,"inconclusive [inhibitor, partial curve, poor fit]"
7,CCCCCCN1C=CC=C/C1=C\C=C(C#N)C#N,inactive
8,CCC(CC)NC(=O)CN1CCN(S(=O)(=O)c2ccc(Br)s2)CC1,"inconclusive [inhibitor, single point]"
9,COc1ccc(C(=O)N2CCc3cc(OC)c(OC)cc3C2c2cccc([N+](=O)[O-])c2)cc1OC (configuration not stated),active: 13.1 µM
10,CCOc1ccc(-n2c(SCC(=O)Nc3ccc4c(c3)OCO4)nc3ccccc3c2=O)cc1,"inconclusive [inhibitor, partial curve, poor fit]"
11,COC(=O)c1ccc(NCCc2csc(-c3ccc(C)cc3)n2)c([N+](=O)[O-])c1,inactive
12,COc1ccccc1N1CCN(C(=O)c2cc3c(=O)n4ccccc4nc3s2)CC1,"inconclusive [inhibitor, single point]"
13,COc1cc(N=Cc2c(O)c3ccccc3oc2=O)c(OC)cc1Cl,inactive
14,Cc1coc2c1C(=O)C(=O)c1c-2ccc2c1CCCC2(C)C,"inconclusive [inhibitor, full curve]"
15,CC(C)c1ccc(S(=O)(=O)N2CCN(C(=S)NCc3ccco3)CC2)cc1,"inconclusive [inhibitor, partial curve, poor fit]"
16,Cc1ccc(C(=O)Cn2cnc3ccccc3c2=O)cc1C,inactive
17,CCCCC(=O)Nc1ccc(C(=O)NCCN2CCOCC2)cc1,inactive
18,COc1ccc(NC2CCCN(C(=O)CCc3cn[nH]c3)C2)cc1 (configuration not stated),"inconclusive [inhibitor, single point]"
19,O=C(CSc1nc2ccc(Nc3nc(N4CCOCC4)nc(N4CCOCC4)n3)cc2s1)NCc1ccco1,"inconclusive [inhibitor, single point]"
20,COCc1cc(Sc2ccc(Br)cc2)nc(-c2ccccc2)n1,"inconclusive [inhibitor, full curve, poor fit]"
21,CC(C)(C)c1cc(C(=O)NNc2ccc(OC(F)(F)F)cc2)n(Cc2ccccc2)n1,"inconclusive [inhibitor, single point]"
22,CC(C)(C)n1ncc2c(=O)n(Cc3cccc(Cl)c3)cnc21,inactive
23,O=C(Nc1ccccc1F)c1ccc([N+](=O)[O-])s1,active: 10.4 µM
24,COc1ccc(N2CCN(C(=O)COC(=O)c3cccc(S(=O)(=O)Nc4ccccc4OC)c3)CC2)cc1,"inconclusive [inhibitor, partial curve]"
